PMC7819943, “Rice protein-binding microarrays: a tool to detect cis-acting elements near promoter regions in rice”
This is one part of the list.

Molecular target: T1, OsWOX13 (Oryza sativa, UniProt Q5QMM3 1-267)
T1 sequence: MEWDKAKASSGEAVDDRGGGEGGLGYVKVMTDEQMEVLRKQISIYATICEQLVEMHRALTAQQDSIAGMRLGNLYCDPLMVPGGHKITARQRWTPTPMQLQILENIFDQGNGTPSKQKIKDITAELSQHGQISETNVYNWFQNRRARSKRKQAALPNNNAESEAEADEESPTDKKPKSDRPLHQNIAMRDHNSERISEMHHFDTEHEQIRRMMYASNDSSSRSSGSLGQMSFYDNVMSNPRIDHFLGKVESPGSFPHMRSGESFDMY
Test: protein-binding microarray (RPBM); PBS, 2% BSA, 51.3 ng/ul salmon testes DNA, 50 uM zinc acetate, 200 nM TF, 25 C, 1 h; high values mean tight binding
Details: protein: recombinant; tags: N-terminal polyhistidine and DsRed monomer fusion (pET32a); label: CyDye5-dUTP incorporated in the synthesized complementary strand; 3' TTTTT single-stranded linker to array surface; dsDNA, one strand shown
How it was run: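 Binding signal is reported as fluorescence intensity per feature (arbitrary units) from an Axon 4000B scanner. Incubation used 200 nM of each Ni–NTA-purified, N-terminally polyhistidine- and DsRed-fused transcription factor from E. coli BL21-CodonPlus on a double-stranded custom Agilent array for 1 h at 25 °C, with 50 µM zinc acetate in the buffer, followed by washing.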

Row | Sequence | binding signal
1 | GCATGGTGGCGGCGGGAAGGAGGAGTGGGGCGGCGGGTGCCGGAGTCACCTAGTGCAG | 5290 fluorescence intensity (a.u.)
2 | TTATAATTTACGCTGCAAATGTAGCAATCAGTCGATACTTCGGAGTCACCTAGTGCAG | 16000 fluorescence intensity (a.u.)
3 | GCTGACCATTGATTGATTCCCATAATTACCTAGAGAACTTCGGAGTCACCTAGTGCAG | 40600 fluorescence intensity (a.u.)
4 | TAAGATAGACGGTCAAAATTGGACACGTAAATTCATGGCTCGGAGTCACCTAGTGCAG | 7400 fluorescence intensity (a.u.)
5 | GGCAGCCAAATTGACTCAGATATTTTGTTGTGTTGCTAGTCGGAGTCACCTAGTGCAG | 18100 fluorescence intensity (a.u.)
6 | CTCGTCCTGATTGCCAACGACGGCGGAGAGCTCGCCGGTGCGGAGTCACCTAGTGCAG | 19100 fluorescence intensity (a.u.)
7 | TATTACATTTAATGAAACTAATTTGGTGTTTTAAATGCTGCGGAGTCACCTAGTGCAG | 10600 fluorescence intensity (a.u.)
8 | TAAATTAATTGGGCCGTCAAACTCAGGAAAAGCCCAGTCTCGGAGTCACCTAGTGCAG | 40800 fluorescence intensity (a.u.)
9 | ATAATCCCTTGCGATTTATATTGAATTAATAGTTCTTGTTCGGAGTCACCTAGTGCAG | 65000 fluorescence intensity (a.u.)
10 | AGTCAGCTAGCTTAGTCTGATTGGCACCTAACCAACACTACGGAGTCACCTAGTGCAG | 11400 fluorescence intensity (a.u.)
11 | ATGATTTGACAATGTGTTGCTACAGTAAATATTTGCTAATCGGAGTCACCTAGTGCAG | 34700 fluorescence intensity (a.u.)
12 | GCTCATTGAAAATAAACTGTTGGTTTCAGTTCCAAGGTCACGGAGTCACCTAGTGCAG | 3410 fluorescence intensity (a.u.)
13 | GCCATCTGCTGCCGATGATTAGCGATGGATTATTATATCGCGGAGTCACCTAGTGCAG | 3160 fluorescence intensity (a.u.)
14 | AATTATTGATTTGATGAAACTAATTTAGTATTATAAATATCGGAGTCACCTAGTGCAG | 6950 fluorescence intensity (a.u.)
15 | TTGATTGGATAATTTTGTGGTTTGGGAAGAAATGGTGATGCGGAGTCACCTAGTGCAG | 64000 fluorescence intensity (a.u.)
16 | ACCAGATCTACAACATTATAATTGACAATAGTTTTATTTGCGGAGTCACCTAGTGCAG | 11100 fluorescence intensity (a.u.)
17 | TTTTCCTTTGCCAATCAGGCATGAACTGAACTACCTTGTCCGGAGTCACCTAGTGCAG | 4170 fluorescence intensity (a.u.)
18 | ACAACAATTAACAGTGTACAATAATTACATACATGCACCGCGGAGTCACCTAGTGCAG | 19000 fluorescence intensity (a.u.)
19 | TTTAAATAGATGATAAATAGACTTACTTATCCTTAGTCATCGGAGTCACCTAGTGCAG | 24900 fluorescence intensity (a.u.)
20 | AAAAGCGATGATGACTGATTGAATTGAAGTTGAGGAGGTGCGGAGTCACCTAGTGCAG | 23800 fluorescence intensity (a.u.)
21 | GTACAATTATGTTCTTGATTCTTATATTTTGAAACGGAGGCGGAGTCACCTAGTGCAG | 3290 fluorescence intensity (a.u.)
22 | ACCACAAACTAATTATAGGTGCATACTTTCTATTTGCGCACGGAGTCACCTAGTGCAG | 6590 fluorescence intensity (a.u.)
23 | ACTGAAAGCCAATCAATCATATACTGAAAACCTGCTAGTTCGGAGTCACCTAGTGCAG | 44800 fluorescence intensity (a.u.)
24 | CTTTGCTTGATTACTTCCTTCGATCTTGCCCTGGTTGGTTCGGAGTCACCTAGTGCAG | 24900 fluorescence intensity (a.u.)
25 | GTTGGAACCTTAACTGATTGTGAGAGGATGTATTTCCATGCGGAGTCACCTAGTGCAG | 5730 fluorescence intensity (a.u.)
26 | ATAGTACGATTGCTCAATCAAATTGTTGGCGCTTTTAAATCGGAGTCACCTAGTGCAG | 8770 fluorescence intensity (a.u.)
27 | CGAGAGATTGATAGATTATAATAACCCCGGGTGTACATATCGGAGTCACCTAGTGCAG | 41700 fluorescence intensity (a.u.)

Row | Sequence | binding signal
28 | CTGCATTAATTACTGAAAACTTCCGAGCACTCGTTCCCACCGGAGTCACCTAGTGCAG | 17700 fluorescence intensity (a.u.)
29 | CACATTACAACTACCTTGATTGGAGGCTTCTCATATTATACGGAGTCACCTAGTGCAG | 18400 fluorescence intensity (a.u.)
30 | AGTTAACTGAAACTCTGAACTTTCTGAAATTTCCTCCATTCGGAGTCACCTAGTGCAG | 11300 fluorescence intensity (a.u.)
31 | CACGAGTACTTAATTAACAACTTTTATTTAACGGATGTTTCGGAGTCACCTAGTGCAG | 5780 fluorescence intensity (a.u.)
32 | GTAATTATTCCATCCGTCACAATTCACAAATTACAACAACCGGAGTCACCTAGTGCAG | 7440 fluorescence intensity (a.u.)
33 | AAATATCTTAATTTGTAGCAATTCATTATAGTTGGTAAGGCGGAGTCACCTAGTGCAG | 5500 fluorescence intensity (a.u.)
34 | CTTTAATTATATTGGTTGCATGTATTATATTAGTTGAGATCGGAGTCACCTAGTGCAG | 17300 fluorescence intensity (a.u.)
35 | CAAGATAATGCAAATTATTTGACTATTTCTTCAATGCGTCCGGAGTCACCTAGTGCAG | 13800 fluorescence intensity (a.u.)
36 | CCTGATTTTAGGTACAATTTATCGTGTAGGAGATAATTTTCGGAGTCACCTAGTGCAG | 8020 fluorescence intensity (a.u.)
37 | ATGTGATTTCTTAATGTGAGGTTTTGATCGAACCAGCTGACGGAGTCACCTAGTGCAG | 21200 fluorescence intensity (a.u.)
38 | CCTCGGTGACTGGCAGGTGGTCCGAAGTCCTAACATGTGCCGGAGTCACCTAGTGCAG | 5010 fluorescence intensity (a.u.)
39 | TTTACTAATTTATTTCCTTCTGCAAGGCGATATGCAATTGCGGAGTCACCTAGTGCAG | 20700 fluorescence intensity (a.u.)
40 | AAAATTAAATTTAACCATGTCATTTTATTTCTCACACTTGCGGAGTCACCTAGTGCAG | 27700 fluorescence intensity (a.u.)
41 | ATTGATTTTATTAAGTAACTGTGTGCTAATTAATTGTTCACGGAGTCACCTAGTGCAG | 28300 fluorescence intensity (a.u.)
42 | CTAATTCTTGATTAATTACCGCACTTAGTCACGCCAAGACCGGAGTCACCTAGTGCAG | 36700 fluorescence intensity (a.u.)
43 | AAATTAAATTTTATTTGTTGAAAATAATATCATTGGATTGCGGAGTCACCTAGTGCAG | 6020 fluorescence intensity (a.u.)
44 | ACACCCTAATTTGTTGATTTAGCCACATTCGTATAGGAACCGGAGTCACCTAGTGCAG | 30200 fluorescence intensity (a.u.)
45 | GCCTTCATGCATAGAGACGTGATTAGTGGTTAATTAGTGGCGGAGTCACCTAGTGCAG | 7600 fluorescence intensity (a.u.)
46 | ATTAATCTGCAGATTTCCATGATTGGTGGTGGAGTTCATCCGGAGTCACCTAGTGCAG | 11800 fluorescence intensity (a.u.)
47 | TACCAAAATGATTACTCCCTTCATCTAGCATTATACCAACCGGAGTCACCTAGTGCAG | 3450 fluorescence intensity (a.u.)
48 | GGCTAATCTGATCTTAATGATCAAGACACGCATGAGTGAGCGGAGTCACCTAGTGCAG | 7840 fluorescence intensity (a.u.)
49 | TGATTAACGTGGTTCAAATTGATTCTTAGAAAATGAAAAGCGGAGTCACCTAGTGCAG | 7510 fluorescence intensity (a.u.)
50 | CTTCATCTTAATTATATCTACCTACTCTTCATAAGGAAATCGGAGTCACCTAGTGCAG | 5330 fluorescence intensity (a.u.)
51 | CACCAATTTGATTGTTTTATTATTTTAAATCTTCAGTACTCGGAGTCACCTAGTGCAG | 14200 fluorescence intensity (a.u.)
52 | AAAAGGTACTCCTAAATTGATAATCGTCGTGAACAAATAGCGGAGTCACCTAGTGCAG | 4470 fluorescence intensity (a.u.)
53 | CCCATGTAGATTGGGCCTGCTTAGTGAAGTCTCACGTAGCCGGAGTCACCTAGTGCAG | 5240 fluorescence intensity (a.u.)
54 | AAATATTATAATTGATTGTCGATGAAACATCGGGTTGTACCGGAGTCACCTAGTGCAG | 46200 fluorescence intensity (a.u.)
